The full ranking holds about 110,000 compounds; the median of “z-score” is about -0.1, and the highest 2% start at about 2. This is one part of the list.

The assay deals with Metabotropic glutamate receptor 8 (Rattus norvegicus) (UniProt P70579). In words: mGluR8 Gi/Go-coupled signaling modulation – cell-based, rat, thallium flux, HTS, primary screen (AID 488969). The note with it: HEK293 rat mGluR8, GIRK (G protein-gated inwardly rectifying potassium channel) thallium flux, FluoZin2; at 10 µM; stronger effect = higher value; submaximal glutamate (EC20) added with thallium.
UniProt P70579, sequence (P70579 whole entry, looked up): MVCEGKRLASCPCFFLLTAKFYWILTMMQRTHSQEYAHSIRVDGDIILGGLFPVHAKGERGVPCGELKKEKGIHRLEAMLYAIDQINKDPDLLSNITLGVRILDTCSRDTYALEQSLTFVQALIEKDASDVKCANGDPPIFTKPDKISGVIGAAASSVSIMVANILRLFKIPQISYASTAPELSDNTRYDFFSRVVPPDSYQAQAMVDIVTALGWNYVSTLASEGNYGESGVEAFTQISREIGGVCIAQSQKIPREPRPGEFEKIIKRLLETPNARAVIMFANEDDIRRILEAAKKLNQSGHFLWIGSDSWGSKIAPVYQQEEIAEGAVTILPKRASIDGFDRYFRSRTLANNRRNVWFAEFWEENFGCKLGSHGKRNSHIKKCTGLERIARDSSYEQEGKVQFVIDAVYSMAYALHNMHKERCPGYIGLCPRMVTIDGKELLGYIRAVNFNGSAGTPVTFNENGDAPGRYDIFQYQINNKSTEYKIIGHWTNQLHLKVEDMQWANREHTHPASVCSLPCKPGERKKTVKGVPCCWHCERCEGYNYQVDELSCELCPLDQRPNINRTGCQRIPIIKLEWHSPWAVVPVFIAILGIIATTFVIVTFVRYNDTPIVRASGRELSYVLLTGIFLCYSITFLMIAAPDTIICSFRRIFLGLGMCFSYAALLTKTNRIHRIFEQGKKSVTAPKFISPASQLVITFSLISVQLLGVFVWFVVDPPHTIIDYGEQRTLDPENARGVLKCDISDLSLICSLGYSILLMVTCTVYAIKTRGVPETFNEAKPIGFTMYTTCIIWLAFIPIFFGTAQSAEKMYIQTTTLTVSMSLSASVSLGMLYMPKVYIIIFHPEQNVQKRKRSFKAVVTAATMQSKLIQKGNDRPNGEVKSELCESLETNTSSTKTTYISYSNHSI
In turn, `O=C(Nc1ccc(Br)cc1F)C1CCCN(S(=O)(=O)c2cnc[nH]2)C1` (centres undefined) had a z-score of 0.156. As for `COc1ccc(Oc2nc(C)cc(C)c2S(C)(=O)=O)cc1`, the z-score turned out to be 0.0238. The same measure for `CCOC(=O)C1CCN(S(=O)(=O)c2cccc(-c3cn4cc(Cl)ccc4n3)c2)CC1`: -0.273; for `Cn1ccnc1SCC(=O)c1ccc(Br)cc1`: 0.181; for `O=C(CN1CCCCCC1)Nc1cccc(Br)c1`: 0.334.

On to `Nc1[nH]c(N=NC(=O)c2ccc(F)cc2)c2ccccc12`, for which the z-score is -0.162. The same measure for `COc1cc(C(=O)Nc2ccc([N+](=O)[O-])cn2)cc(OC)c1OC`: -0.0414. Consider `Cc1ccc(C)c(Cn2nnc3c(=O)[nH]c(C(=O)NCC4CCCO4)nc32)c1` (centres undefined), for which the z-score is -1.02.

`Cc1ccc(NC2=C(Cl)C(=O)N(C3CCCCC3)C2=O)cc1` had a z-score of 0.222. The same measure for `COc1ccc(-n2c(SCC(=O)Nc3sc4c(c3C#N)CCCC4)nnc2-c2ccc(O)cc2)cc1`: -0.386; for `CS(=O)(=O)c1ccc(Cl)c(NC(=O)c2cccc(Br)c2)c1`: -0.236; for `O=C(Oc1ccc(Cl)c2ccccc12)N1CCCCC1`: -0.501. In the case of `CCCCCCCCNC(=O)c1cccnc1SCC(=O)Nc1ccc(OC)cc1OC`, the z-score is -0.0737.

For `Cc1ccc(NC(=O)CCn2cccc2)cc1Cl`, the z-score was -0.079. Then `O=C(Nc1cccnc1)c1cc(F)cc(F)c1`, with -0.0565. The same measure for `Cc1cc(C)cc(OCc2nc3ncc(Br)cc3[nH]2)c1`: -0.251.

For `CC(C)OC(=O)/C(=C\c1cccc2ccccc12)NC(=O)c1ccccc1`, the z-score is -0.393. Then `COc1ccc(C2=NCC(CSc3nnnn3C)S2)cc1` (centres undefined), with 0.722; and `Cc1ccc(N2CCN(CC(O)COC3CCCCC3)CC2)cc1` (centres undefined), with -1.49. Then `Cc1ccc(SCc2cc(=O)n3ccsc3n2)c(C)c1`, with -0.245.

As for `Cc1ccc(Cn2c(=N)n(CC(O)c3ccco3)c3ccccc32)cc1` (centres undefined), the z-score amounted to 1.09. The same measure for `O=C(c1ccc(S(=O)(=O)N2CCOCC2)cc1)N(c1ccccc1)C1C=CS(=O)(=O)C1` (centres undefined): 0.344. Then `CCOc1cccc2c1OC1(C)CC2NC(=O)N1c1cccc(F)c1` (centres undefined), with 0.403; and `CCC(=O)c1ccc(-c2ccccc2)cc1`, with 0.149.

With `O=C(COc1ccc([N+](=O)[O-])cc1)Nc1ccc(N2CCCC2)cc1`, the z-score was -0.0533.

Consider `Clc1cccc(OCCn2cncn2)c1Cl`, for which the z-score is -0.265. As for `O=C(CN1c2cccc3cccc(c23)S1(=O)=O)NCc1ccc2c(c1)OCO2`, the z-score came to 0.00783. The same measure for `O=C(O)CCCN1C(=O)NC2NC(=O)NC21` (centres undefined): 0.386.

For `O=C(Oc1cccnc1)c1cc(S(=O)(=O)N2CCCCC2)ccc1Cl`, the z-score is -0.62. The same measure for `Cc1ccc2nc(CSc3nc(C)ccc3C#N)[nH]c2c1`: 0.728. Then `CC(O)CN1C(=O)C(CC(=O)Nc2ccc(Cl)cc2)SC1=Nc1ccccc1` (centres undefined), with -1.15. Compound `O=C(Nc1cc(F)ccc1F)C1CCCO1` (centres undefined) registered a z-score of 0.011. Then `CCOc1ccc(C)cc1S(=O)(=O)N1CCCCC1`, with 0.167; and `CC12COC3(C(=O)Nc4ccc(Cl)cn4)CC1CCC32C` (centres undefined), with -0.154; and `Cn1c(=O)oc2cc(S(=O)(=O)NCc3ccccn3)ccc21`, with -0.159. Turning to `CCOC(=O)N1CCN(C(=O)CSc2nnc(-c3cccs3)o2)CC1`, the z-score was -0.0928. The same measure for `O=C(OCc1nc2ccccc2[nH]1)C1CCCCC1`: -0.313; for `COc1ccc(/C=N/NC(=O)c2c(C)n(C)c3ccc(OC)cc23)c(OC)c1`: -0.271. The same measure for `O=C(Nc1ccc2c(c1)OCO2)N1CCN(c2ncccn2)CC1`: 0.0736.

As for `CCSc1nnc(-c2sc3nnc(-c4ccccc4)c(-c4ccccc4)c3c2N)o1`, the z-score came out at 1.14. The same measure for `CCOC(=O)C1CCCCN1Cc1cc(OC)ccc1OC` (centres undefined): -0.121; for `CCCCCc1nc(N)c(C#N)c(-c2ccco2)c1CCCC`: 0.201. Then `COc1ccc(NC(=O)c2cccnc2Sc2ccccc2)c(OC)c1`, with -0.415; and `Cc1ccc(C)c(C(=O)CN2C(=O)CCC2=O)c1`, with 0.0951; and `N#Cc1cnn(Cc2ccccc2)c1N`, with -0.318.

Consider `Cc1ccccc1OCCNC(=S)Nc1ccccc1`, for which the z-score was found to be 0.073. The same measure for `Nn1c(Cc2cccc3ccccc23)nnc1SCCOc1ccc(Br)cc1`: -0.185; for `Cc1nc2nc(SCC(=O)C(C)(C)C)[nH]c2cc1Br`: -0.6. The same measure for `CCOC(=O)CNC(=O)CSc1nnc(-c2ccc(OC)cc2)n1CC`: 0.372. The same measure for `CCC(=O)Nc1nnc(-c2ccc(OC)cc2)o1`: -0.442; for `COc1ccccc1N1CCN(C(=O)/C=C/c2ccc3c(c2)OCO3)CC1`: 0.13; for `CCOC(=O)C1=C(O)/C(=C/c2ccc(OCC(=O)O)c(OCC)c2)SC1=Nc1ccc(OC)cc1`: -0.217.

Turning to `C/C(=N\NC(=O)c1cc2ccccc2cc1O)c1ccc2c(c1)OCO2`, the z-score is -0.494. The same measure for `Cc1cc(N/N=C/c2ccc(Cl)cc2Cl)nc(NCc2ccccc2)n1`: -0.221.

For `O=[N+]([O-])c1ccc(-c2csc3[n+]2CCS3)cc1`, the z-score was -0.167.

For `Cc1ccc(C(=O)NN2C(=O)/C(=C/c3cn(C)c4ccccc34)SC2=S)cc1`, the z-score is -0.0891. Then `O=C(O)c1ccccc1C(=O)N(Cc1ccccc1)Cc1ccccc1`, with -0.611. Then `CN(C(=O)COC(=O)c1cccnc1Nc1ccccc1F)C1CCS(=O)(=O)C1` (centres undefined), with -0.153; and `O=C(NC1CCCCC1)C1CCCN(S(=O)(=O)c2cnc[nH]2)C1` (centres undefined), with 0.801.

Source of the values: PubChem BioAssay AID488969 (Vanderbilt High Throughput Screening Facility, 2010).
